Measured values taken from PubChem BioAssay AID1345083 (National Center for Advancing Translational Sciences (NCATS), 2018).
Screen size: about 94,000 compounds; about 6,200 (6.6%) were called active. Inconclusive means that the source gave no clear call. Such entries were picked first, then a sample of the others. Calls come from the whole dose curve; as a rule, active = well fitted inhibition curve with a large enough effect; inconclusive = small, poorly fitted or top-dose-only effect; inactive = flat fitted curve, though single readings scatter. Potencies beside an inconclusive call are fits to weak or partial responses and may not hold up.

Assay: Cytotoxic Profiling in HEK 293 Cell Line of Diverse Libraries Using Quantitative High-Throughput Screening; note: nearly all actives have a fitted effect of over 60% in size
Conditions: HEK 293 viability, ATP luminescence (CellTiter-Glo), 48-72 h; series mostly up to 115 µM
Method in brief: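 250 HEK 293 cells/well; compound by pintool; incubated 48 or 72 hr at 37 degree Celsius; CellTiter-Glo added, 10 min RT, luminescence imaged.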
Potency is the fitted concentration of half-maximal effect; tags give direction and shape of the fitted curve.

SMILES	Potency
COc1cccc(-c2cc3c(=O)n(CCNC(=O)c4c(F)cccc4F)ccn3n2)c1	inactive
CCNC(=O)N[C@H]1CO[C@H]2[C@@H]1OC[C@@H]2Nc1nccc(-c2ccc(-c3ccccc3)cc2)n1	active: 10 µM
CN(Cc1ccccc1)C(=O)C[C@@H]1CCNC[C@@H]1Cc1cc(CN2CCCCC2)on1	inconclusive: 79.4 µM [inhibitor, partial curve]
COc1cccc(C(=O)N2CCc3nc(C(C)C)nc(-c4ccc(Cl)cc4)c3C2)c1	active: 89.1 µM
CNC(=O)CCn1ncc2cc(OC3CCc4cccc(-c5ccnn5C)c43)ccc21 (configuration not stated)	inconclusive: 112 µM [inhibitor, partial curve]
COc1ncccc1C(=O)N1CCC(CCC(=O)N2CCC(Cc3ccccc3)CC2)CC1	active: 35.5 µM
COC(=O)c1ccccc1NC(=O)Cn1cccc1-c1nc(-c2ccc(OC)c(F)c2)no1	inactive
CN(C)[S+](=O)([O-])c1ccc2c(c1)OCCN(Cc1cccc(F)c1F)C2	inconclusive: 89.1 µM [inhibitor, partial curve, poor fit]
O=C(C[C@@H]1O[C@H](CNCc2ccc(F)cc2)[C@@H](O)[C@H]1O)NCc1ccc(F)cc1	inactive
O=C(c1ccc(F)c(F)c1)N1CCC2(CC1)NC(=O)N(Cc1ccc(F)cc1)C2=O	inconclusive: 3.55 µM [inhibitor, full curve, poor fit]
Cc1ccccc1S(=O)(=O)N1CCCC(CCC(=O)NCC2CCCCC2)C1 (configuration not stated)	active: 39.8 µM
CN(C)c1nc2c(c(=O)[nH]1)CCN(Cc1ccc(Cl)cc1F)CC2	inconclusive: 56.2 µM [inhibitor, partial curve, poor fit]
CC(C)(C)NC(=O)N1CCCC1c1nc(CCOCC2CC2)no1 (configuration not stated)	inactive
CC(=O)Nc1ccc(C(=O)N2CCN(c3ccc(C=O)cc3)C(=O)C2)cc1	inactive
COCc1nc(-c2ccc(OC3CCN(S(=O)(=O)c4ccccc4C)C3)cc2)no1 (configuration not stated)	inconclusive: 50.1 µM [inhibitor, partial curve, poor fit]
c1ccc(Cn2ccnc2C2CCN(c3ncnc4ccsc34)CC2)nc1	inconclusive: 56.2 µM [inhibitor, partial curve, poor fit]
CC(C)Cn1c(=O)c(C(=O)N2CCN([S+](C)(=O)[O-])CC2)nc2cccnc21	inactive
C=CCNC(=O)CCc1c(C)nn(-c2ccccc2)c1Oc1ccc(F)cc1F	inconclusive: 89.1 µM [inhibitor, partial curve, poor fit]
CCNC(=O)CC1=CSC2=NC(C)=C(C(=O)Nc3ccccc3)C(c3ccc(F)cc3)N12 (configuration not stated)	inconclusive: 50.1 µM [inhibitor, partial curve, poor fit]
N#Cc1ccc(CNC2(Cc3cc(COc4ccccc4)on3)COC2)cc1	inactive
COc1ccc(CN2Cc3[nH]cnc3C[C@H]2C(=O)NCc2ccco2)cc1	inconclusive: 100 µM [inhibitor, partial curve, poor fit]
Cc1ccc(S(=O)(=O)N2C[C@@H]3OCC(=O)N(Cc4ccc(OC(F)(F)F)cc4)[C@@H]3C2)cc1	inconclusive: 56.2 µM [inhibitor, partial curve, poor fit]
O=C(CCC1CCN(C(=O)[C@@H]2C[C@@H]3C=C[C@H]2C3)CC1)Nc1ccc2c(c1)OCCO2	inconclusive: 50.1 µM [inhibitor, partial curve, poor fit]

SMILES	Potency
O=C1CS(=O)C2(CCN(S(=O)(=O)Cc3ccccc3F)CC2)N1CC1CC1 (configuration not stated)	inconclusive: 39.8 µM [inhibitor, full curve, poor fit]
O=C(NCc1ccc(Cl)cc1)c1cn2cc(-c3ccc(C(F)(F)F)cc3)sc2n1	inactive
COCCC(=O)N1CCC2(CC1)C(=O)N(C)c1ccccc12	inactive
CNC(=O)[C@@H]1CN(S(=O)(=O)c2cc(F)ccc2F)C[C@H]1COC	inconclusive: 89.1 µM [inhibitor, single point]
COc1cccc(C(C)N(C)Cc2nc(Cc3cccc(F)c3)no2)c1 (configuration not stated)	inconclusive: 25.1 µM [inhibitor, full curve, poor fit]
O=C(NCc1ccc(F)cc1)C1CCN(Cc2ccccc2-c2ccccc2F)CC1	active: 31.6 µM
CCCCN1C(=O)NC(c2ccccc2OC)C2=C1COC2=O (configuration not stated)	inactive
CCOc1ccc(NC(=O)c2ccc3c(c2)N(C)C2CCCCN2C3=O)cc1 (configuration not stated)	inconclusive: 50.1 µM [inhibitor, partial curve, poor fit]
O=C(Nc1cc(C2CC2)nn1-c1ccccc1)c1ccccc1F	inconclusive: 100 µM [inhibitor, partial curve]
O=S(=O)(NC[C@H]1Cn2c(-c3ccc(F)cc3)cnc2CO1)c1ccc(Cl)cc1	active: 100 µM
COc1ccccc1Nc1ncncc1-c1nc(-c2ccccc2)no1	inactive
COc1cccc(-c2ccc(C(=O)N3CCC(NC(=O)c4cccc(Cl)c4)CC3)cc2)c1	inconclusive: 50.1 µM [inhibitor, partial curve, poor fit]
CCc1nc(-c2ccc(OC3CCN(C(=O)Cc4cccc(OC)c4)C3)cc2)no1 (configuration not stated)	inconclusive: 50.1 µM [inhibitor, partial curve, poor fit]
CCCNC(=O)N1CCCCCNC(=O)[C@@H]2CCCC[C@@H]21	inactive
N#Cc1ccc(CN2CCC3OCCN(Cc4ccccc4F)C(=O)C3C2)cc1 (configuration not stated)	inconclusive: 100 µM [inhibitor, partial curve]
Cc1noc(C)c1[S+](=O)([O-])N1CCc2nc(C3CC3)nc(-c3ccc(Cl)cc3)c2C1	inactive
O=C(C1CC(=O)N(c2n[nH]c3cccc(F)c23)C1)N1CCN(c2ccc(F)cc2)CC1 (configuration not stated)	inconclusive: 50.1 µM [inhibitor, partial curve, poor fit]
COCc1nc(N2CC3C[C@@H]4CC2C[C@H](C3)C4)c2cnn(C)c2n1	inconclusive: 79.4 µM [inhibitor, partial curve, poor fit]
COc1ccc(Cl)cc1C(=O)N1CCC2(CC1)NC(=O)N(c1ccccc1Cl)N2	inconclusive: 50.1 µM [inhibitor, partial curve, poor fit]
CC(=O)Nc1cccc(-c2ccnc(-c3nnc(C)n3CCc3ccccc3)c2)c1	inconclusive: 112 µM [inhibitor, partial curve, poor fit]
CCCN1C(=O)CCc2cc(NC(=O)c3ccc(OC(F)(F)F)cc3)ccc21	inconclusive: 17.8 µM [inhibitor, full curve, poor fit]
Cc1ccsc1CCNc1cc(C2CC(N)C2)ncn1 (configuration not stated)	inconclusive: 25.1 µM [inhibitor, full curve, poor fit]
Cc1noc2c(N3CCN(C)CC3c3ccccc3)cc(-c3cccnc3)nc12 (configuration not stated)	inconclusive: 112 µM [inhibitor, single point]

SMILES	Potency
O=C(NCc1ccc(F)cc1)c1cc(-c2ccc(F)cc2)c2nncn2n1	inactive
O=C(Nc1ccc2ncnc(N3CCCCC3)c2c1)c1c(F)cccc1Cl	active: 50.1 µM
Cc1nc2c(c(-c3ccc(O)cc3)n1)CN(CC1CC1)CCC2	inactive
O=C(CCc1nnn2c1CN(C(=O)Nc1ccc3c(c1)OCCO3)CC2)N1CCCC1	inactive
O=C(NC1CC1)c1cc(-c2ccsc2)c2nncn2n1	inactive
CC(=O)N1CC2(CCCN(Cc3ccc(Cl)cc3)C2)Cc2ccccc21 (configuration not stated)	inconclusive: 50.1 µM [inhibitor, partial curve, poor fit]
Cc1oc2ccn(Cc3ccccc3F)c(=O)c2c1C(=O)NCc1cccnc1	inconclusive: 50.1 µM [inhibitor, partial curve, poor fit]
Cc1ccc(CN2CC[C@H](c3nnc(-c4ccccc4)o3)C2)cc1	inconclusive: 112 µM [inhibitor, partial curve, poor fit]
Cc1ccc(CNC(=O)C2(c3ccc(NS(C)(=O)=O)cc3)CCCCC2)cc1	inconclusive: 89.1 µM [inhibitor, single point]
COC(=O)C1=C(C)N=C2SC=C(CC(=O)NCc3ccccc3F)N2C1c1cccc(OC)c1 (configuration not stated)	inconclusive: 89.1 µM [inhibitor, partial curve, poor fit]
Cc1nc(C(=O)N2CCOc3c(O)cc(-c4cccc(Cl)c4)cc3C2)c(C)o1	active: 39.8 µM
O=C1NCCCCCCN(Cc2ccncc2)[C@@H]2CN(S(=O)(=O)c3ccccc3)CC[C@@H]12	inconclusive: 89.1 µM [inhibitor, single point]
O=C(Cc1ccccn1)N1CCCC(c2nn(-c3cccc(Cl)c3)c(=O)[nH]2)C1 (configuration not stated)	inactive
O=C(NCc1ccccc1-n1cncn1)C12CNCC1CNC2 (configuration not stated)	inactive
CCCCc1ncc(CN2CCN(Cc3ccccc3)CC(O)C2)[nH]1 (configuration not stated)	inconclusive: 89.1 µM [inhibitor, single point]
Cc1ccc(-c2ccnc(N(C)CC3CC(=O)N(C(C)(C)C)C3)n2)c(C)n1 (configuration not stated)	active: 79.4 µM
O=[S+]([O-])(Nc1nncs1)c1ccc2c(c1)OCCN(Cc1cncc(F)c1)C2	inactive
COc1ccc(CN2CCCC3(CC(c4cccnc4)=NO3)C2)cc1 (configuration not stated)	inactive
Cn1ccnc1CN1C[C@@H](F)[C@@H](OCc2nc3ccc(C(F)(F)F)cc3[nH]2)C1	inactive
O=C1NCc2ccccc2CC12CCN(Cc1cccc3ccccc13)C2 (configuration not stated)	inconclusive: 50.1 µM [inhibitor, partial curve, poor fit]
O=C(c1ccccc1F)N1CCN(c2cc(-c3cccs3)[nH]n2)CC1	inconclusive: 79.4 µM [inhibitor, partial curve, poor fit]
